From PubChem BioAssay (NCI)
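Dose response: 5 concentrations. Exposure: 48 h. Format: 96-well plates. Endpoint: linear interpolation; highest concentration if not reached. GI50 is the concentration that inhibits growth by half.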 A number of entries come with more than one value. This list holds those alone. An entry can have further records. The tests behind the records often covered other concentration ranges, not given here; some values may only mark the edge of a range.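 The concentration for full growth arrest is given as TGI.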

How the values were obtained:
Assay in all cases: DTP human tumour cell line panel, 48 h
[1] = tested on: SF-268 CNS
[2] = tested on: T-47D breast
[3] = tested on: CCRF-CEM leukemia
[4] = tested on: HT29 colon
[5] = tested on: HL-60(TB) leukemia
[6] = tested on: K-562 leukemia
[7] = tested on: RPMI-8226 leukemia
[8] = tested on: KM20L2 colon

Q: How did the TGI [1] turn out when `Nc1nc(N)c2cc(CNc3ccc(C(=O)NC(CC(=O)O)C(=O)O)c(Cl)c3)ccc2n1` (stereo not drawn) was run?
A: Its TGI is 12.6 µM and > 500 µM.

Q: `CCCCCCCCCCCCOC1C(C(CC(=O)NCCN2CCCC2)NS(=O)(=O)c2cc(Cl)cc(Cl)c2)OC2OC(C)(C)OC21` (stereo not drawn) was tested. Which GI50 [2] did it give?
A: Its GI50 is 2.08 µM and 45.8 nM.

Q: `CCOc1ccccc1NC(=O)C(C#N)C1=C(Cl)C(=O)c2ccccc2C1=O` (stereo not drawn) was tested. Which TGI [3] did it give?
A: The TGI was 3.66 µM and > 100 µM.

Q: What about the TGI [4] of the same compound?
A: The TGI was 4.19 µM and 52.4 µM.

Q: What about the TGI [5] of the same compound?
A: The TGI was 2.16 µM and > 100 µM.

Q: What about the TGI [6] of the same compound?
A: The TGI was 3.92 µM and > 100 µM.

Q: And the TGI [7]?
A: Its TGI is 3.87 µM and > 100 µM.

Q: What about the TGI [8] of the same compound?
A: The TGI was 3.43 µM and 44.5 µM.
